Where a chain is given by its changes, count along the chain named. Some of the results follow.
T1: RBFOX1 RRM RbFoxmut (Fox-RRM*) (Homo sapiens, UniProt Q9NWB1 109-208, R118D;E147R;N151S;E152T)
T1 sequence: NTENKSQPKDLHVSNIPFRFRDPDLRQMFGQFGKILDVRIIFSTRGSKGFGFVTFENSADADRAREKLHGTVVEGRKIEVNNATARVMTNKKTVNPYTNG

B1: CUCUUCU (DNA:RNA)
RNA: GGGAGACCGGAAUUCAGAUUGUCCCUCUUCUUUAAAUCCCGUCGUAGCCACCA
DNA 1: CAATCTGAATTCCGGTCTCCC
DNA 2: TGGTGGCTACGACGGGATT
B2: GCAUCCG (DNA:RNA)
RNA: B1 RNA with C25G, U26C, C27A, U29C, U31G
DNA 1: CAATCTGAATTCCGGTCTCCC
DNA 2: TGGTGGCTACGACGGGATT
B3: UACUACU (DNA:RNA)
RNA: B1 RNA with C25U, U26A, U29A
DNA 1: CAATCTGAATTCCGGTCTCCC
DNA 2: TGGTGGCTACGACGGGATT
B4: CUCUCAU (DNA:RNA)
RNA: B1 RNA with U29C, C30A
DNA 1: CAATCTGAATTCCGGTCTCCC
DNA 2: TGGTGGCTACGACGGGATT
B5: GAUGAGA (DNA:RNA)
RNA: GGGAGACCGGAAUUCAGAUUGUCCGAUGAGAUUAAAUCCCGUCGUAGCCACCA
DNA 1: CAATCTGAATTCCGGTCTCCC
DNA 2: TGGTGGCTACGACGGGATT
B6: AACGCAC (DNA:RNA)
RNA: B5 RNA with G25A, U27C, A29C, G30A, A31C
DNA 1: CAATCTGAATTCCGGTCTCCC
DNA 2: TGGTGGCTACGACGGGATT
B7: GAAGACA (DNA:RNA)
RNA: B5 RNA with U27A, G30C
DNA 1: CAATCTGAATTCCGGTCTCCC
DNA 2: TGGTGGCTACGACGGGATT
B8: UAAAAGA (DNA:RNA)
RNA: B5 RNA with G25U, U27A, G28A
DNA 1: CAATCTGAATTCCGGTCTCCC
DNA 2: TGGTGGCTACGACGGGATT
B9: AUGUAUU (DNA:RNA)
RNA: B1 RNA with C25A, C27G, U29A, C30U
DNA 1: CAATCTGAATTCCGGTCTCCC
DNA 2: TGGTGGCTACGACGGGATT
B10: CGGGACA (DNA:RNA)
RNA: B5 RNA with G25C, A26G, U27G, G30C
DNA 1: CAATCTGAATTCCGGTCTCCC
DNA 2: TGGTGGCTACGACGGGATT
B11: GUUGGGG (DNA:RNA)
RNA: B5 RNA with A26U, A29G, A31G
DNA 1: CAATCTGAATTCCGGTCTCCC
DNA 2: TGGTGGCTACGACGGGATT
B12: UUGGCCU (DNA:RNA)
RNA: B1 RNA with C25U, C27G, U28G, U29C
DNA 1: CAATCTGAATTCCGGTCTCCC
DNA 2: TGGTGGCTACGACGGGATT
B13: GAUACAC (DNA:RNA)
RNA: B5 RNA with G28A, A29C, G30A, A31C
DNA 1: CAATCTGAATTCCGGTCTCCC
DNA 2: TGGTGGCTACGACGGGATT
B14: CUCCGUU (DNA:RNA)
RNA: B1 RNA with U28C, U29G, C30U
DNA 1: CAATCTGAATTCCGGTCTCCC
DNA 2: TGGTGGCTACGACGGGATT
B15: CUCCGGG (DNA:RNA)
RNA: B1 RNA with U28C, U29G, C30G, U31G
DNA 1: CAATCTGAATTCCGGTCTCCC
DNA 2: TGGTGGCTACGACGGGATT
B16: ACACCCU (DNA:RNA)
RNA: B1 RNA with C25A, U26C, C27A, U28C, U29C
DNA 1: CAATCTGAATTCCGGTCTCCC
DNA 2: TGGTGGCTACGACGGGATT
B17: ACUUCCG (DNA:RNA)
RNA: B1 RNA with C25A, U26C, C27U, U29C, U31G
DNA 1: CAATCTGAATTCCGGTCTCCC
DNA 2: TGGTGGCTACGACGGGATT
B18: UGUGUCG (DNA:RNA)
RNA: B1 RNA with C25U, U26G, C27U, U28G, U31G
DNA 1: CAATCTGAATTCCGGTCTCCC
DNA 2: TGGTGGCTACGACGGGATT
B19: AAGCACA (DNA:RNA)
RNA: B5 RNA with G25A, U27G, G28C, G30C
DNA 1: CAATCTGAATTCCGGTCTCCC
DNA 2: TGGTGGCTACGACGGGATT
B20: CGAUGCU (DNA:RNA)
RNA: B1 RNA with U26G, C27A, U29G
DNA 1: CAATCTGAATTCCGGTCTCCC
DNA 2: TGGTGGCTACGACGGGATT
B21: AAUGUUU (DNA:RNA)
RNA: B5 RNA with G25A, A29U, G30U, A31U
DNA 1: CAATCTGAATTCCGGTCTCCC
DNA 2: TGGTGGCTACGACGGGATT
B22: AAUAGUC (DNA:RNA)
RNA: B5 RNA with G25A, G28A, A29G, G30U, A31C
DNA 1: CAATCTGAATTCCGGTCTCCC
DNA 2: TGGTGGCTACGACGGGATT
B23: UCAAACG (DNA:RNA)
RNA: B1 RNA with C25U, U26C, C27A, U28A, U29A, U31G
DNA 1: CAATCTGAATTCCGGTCTCCC
DNA 2: TGGTGGCTACGACGGGATT
B24: CUCGAUG (DNA:RNA)
RNA: B1 RNA with U28G, U29A, C30U, U31G
DNA 1: CAATCTGAATTCCGGTCTCCC
DNA 2: TGGTGGCTACGACGGGATT
B25: UCCGUCU (DNA:RNA)
RNA: B1 RNA with C25U, U26C, U28G
DNA 1: CAATCTGAATTCCGGTCTCCC
DNA 2: TGGTGGCTACGACGGGATT
B26: ACGUUAU (DNA:RNA)
RNA: B1 RNA with C25A, U26C, C27G, C30A
DNA 1: CAATCTGAATTCCGGTCTCCC
DNA 2: TGGTGGCTACGACGGGATT
B27: AAAUCCC (DNA:RNA)
RNA: B1 RNA with C25A, U26A, C27A, U29C, U31C
DNA 1: CAATCTGAATTCCGGTCTCCC
DNA 2: TGGTGGCTACGACGGGATT
B28: ACUUAGA (DNA:RNA)
RNA: B5 RNA with G25A, A26C, G28U
DNA 1: CAATCTGAATTCCGGTCTCCC
DNA 2: TGGTGGCTACGACGGGATT
B29: UCAUAGG (DNA:RNA)
RNA: B5 RNA with G25U, A26C, U27A, G28U, A31G
DNA 1: CAATCTGAATTCCGGTCTCCC
DNA 2: TGGTGGCTACGACGGGATT
B30: GGGUCUU (DNA:RNA)
RNA: B1 RNA with C25G, U26G, C27G, U29C, C30U
DNA 1: CAATCTGAATTCCGGTCTCCC
DNA 2: TGGTGGCTACGACGGGATT
B31: CCAAGAA (DNA:RNA)
RNA: B1 RNA with U26C, C27A, U28A, U29G, C30A, U31A
DNA 1: CAATCTGAATTCCGGTCTCCC
DNA 2: TGGTGGCTACGACGGGATT

Each binder was assayed against T1, RBFOX1 RRM RbFoxmut (Fox-RRM*) (assay: EMSA; HiTS-Eq, 1 nM pool, 10 min; buffer printed only for the single-RNA assays: 10 mM Tris pH 7.5, 150 mM NaCl, 3.4 mM EDTA, 0.001% NP-40, 30 C). Conditions: tags: His6 N-terminal (pET28a); label: 5' 32P.
In short: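 Purified RbFox RRM, wild type or mutant, was incubated for 10 min in 50 µL with 1 nM of a 5′-radiolabelled RNA pool carrying 7 randomized nucleotides, whose flanks were annealed to DNA oligonucleotides, over a series of increasing protein concentrations. Unbound RNA was resolved on 8% native PAGE, cut out, reverse-transcribed, barcoded by PCR and sequenced on an Illumina HiSeq 2500. Relative association constants were derived from changes in read counts for each RNA species versus the control reaction and normalised to the cognate motif.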

First: B1
Second: B2
The binding signal of the first is lower: 0.0641 KA relative to UGCAUGU for the first, 0.351 KA relative to UGCAUGU for the second.

First: B3
Second: B4
The binding signal of the first is higher: 0.102 KA relative to UGCAUGU for the first, 0.0817 KA relative to UGCAUGU for the second.

First: B5
Second: B6
The binding signal of the first is higher: 0.11 KA relative to UGCAUGU for the first, 0.0684 KA relative to UGCAUGU for the second.

First: B7
Second: B8
The binding signal of the first is lower: 0.0478 KA relative to UGCAUGU for the first, 0.0641 KA relative to UGCAUGU for the second.

First: B9
Second: B10
The binding signal of the first is higher: 0.168 KA relative to UGCAUGU for the first, 0.0803 KA relative to UGCAUGU for the second.

First: B11
Second: B12
The binding signal of the first is lower: 0.0886 KA relative to UGCAUGU for the first, 0.118 KA relative to UGCAUGU for the second.

First: B13
Second: B14
The binding signal of the first is lower: 0.0711 KA relative to UGCAUGU for the first, 0.0962 KA relative to UGCAUGU for the second.

First: B15
Second: B16
The binding signal of the first is lower: 0.0565 KA relative to UGCAUGU for the first, 0.0805 KA relative to UGCAUGU for the second.

Compared with B17, B18 is higher in binding signal: 0.0695 KA relative to UGCAUGU for the first, 0.253 KA relative to UGCAUGU for the second.

First: B19
Second: B20
The binding signal of the first is lower: 0.0787 KA relative to UGCAUGU for the first, 0.104 KA relative to UGCAUGU for the second.

First: B21
Second: B22
The binding signal of the first is higher: 0.108 KA relative to UGCAUGU for the first, 0.0525 KA relative to UGCAUGU for the second.

First: B23
Second: B24
The binding signal of the first is lower: 0.0791 KA relative to UGCAUGU for the first, 0.136 KA relative to UGCAUGU for the second.

First: B25
Second: B26
The binding signal of the first is lower: 0.0831 KA relative to UGCAUGU for the first, 0.133 KA relative to UGCAUGU for the second.

First: B27
Second: B28
The binding signal of the first is lower: 0.0603 KA relative to UGCAUGU for the first, 0.174 KA relative to UGCAUGU for the second.

Compared with B29, B30 is lower in binding signal: 0.0917 KA relative to UGCAUGU for the first, 0.0856 KA relative to UGCAUGU for the second.

With B31 the binding signal was 0.112 KA relative to UGCAUGU.

Source: publication PMC9911399, “Two distinct binding modes provide the RNA-binding protein RbFox with extraordinary sequence specificity”
